Some of the results follow. At the low end of the ranking the order means little. The protein was read in a cell extract, so binding may be indirect.

This assay has as its target T1, HNF4alpha2 (COS-7 nuclear extract) (UniProt P41235).
T1 sequence: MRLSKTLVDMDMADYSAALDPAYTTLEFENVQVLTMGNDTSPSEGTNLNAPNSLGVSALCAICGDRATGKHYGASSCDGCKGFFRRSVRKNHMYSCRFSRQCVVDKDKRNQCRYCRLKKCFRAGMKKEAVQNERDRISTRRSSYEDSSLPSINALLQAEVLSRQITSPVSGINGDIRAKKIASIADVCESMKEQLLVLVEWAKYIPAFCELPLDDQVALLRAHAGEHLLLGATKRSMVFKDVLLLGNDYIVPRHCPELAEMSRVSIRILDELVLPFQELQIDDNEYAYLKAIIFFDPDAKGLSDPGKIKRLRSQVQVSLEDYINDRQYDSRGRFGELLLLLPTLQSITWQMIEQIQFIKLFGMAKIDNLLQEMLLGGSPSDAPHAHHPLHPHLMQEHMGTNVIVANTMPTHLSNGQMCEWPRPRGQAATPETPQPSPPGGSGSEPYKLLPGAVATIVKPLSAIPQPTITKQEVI
Nature of the assay: protein-binding microarray. Particulars: COS-7 nuclear extract on double-stranded Agilent 4x180k PBM; binding buffer, salt, pH and temperature not given; high values mean tight binding; double strand, one strand shown; sequences stand for … in …GCCTAGGGAGATTAGAGTATCGGTCGA
In the case of AAGGTTGACACCTAGCTGAGCAGGGGACTA, the binding signal (log2 normalized intensity) is -1.13. For CAAGAATGCGTCATCCGCATCTGAAGATAA the value was -1.16; for CACCTTTGGATCCAGCTCCTGATGTTTGGT, 2.02.

In the case of TCTGACTGGCCCAGCCTGGCCTCTAGAGTG, the binding signal (log2 normalized intensity) was -1.19. For GATAAGAGCAAGAAACAGCAAATGCTTTTA the value was -1.01. For CTTTGGTATGGACTGATATTCAAACAGGTC the value was 1.31; for GAGCAAATACAGCACTCAAATGATCAAAGA, -1.13; for GAATGTCGTGCCCTAATCTCACTCTTTGTT, 1.08. As for AAACCCAAGATTTGGTGTTACCTTTGGACT, the figure is 5.71; as for AATTCTAGTCCTATCACTGTCTAGCTGTGT, 0.987; as for CTGTCATGGTGCTGGCGGGAGCATAGCAGC, 0.301.

For the sequence CCATTTGCGCTGGTTTTATGGTGTCTTATC, the binding signal (log2 normalized intensity) was 2.04. For CCAGACCAAGAGCTTAACCTTTGCCATGTG the value was 3.61; for CTCTGTCATGTTCAATATACAGTTGGTATT, 2.13. For GCAGATGCTGGGCAAAGGGCAAGGCGTCTC the value was 2; for TTTCACGATAAAATACACAGGTAAACATTT, 0.544. As for TTCAAATTCTTTGCCATGACCTTTGAAGCC, the figure is 6.75. As to GGGATTGGGGATGCTCAAAGTACACTTGGA, the binding signal (log2 normalized intensity) turned out to be 0.615. For CCAGATGATCTTTACCCTGGAATGCTGTTA the value was 1.33; for TTTGGGCGGGGAAAAGGGAGTAAAGGTCAC, 5.36.

On to AGGACCTTGGGTTCATTTTACAATGCAAAC, for which the binding signal (log2 normalized intensity) was determined as 1.18. As for TGTCCCTCCTCAACCTCTCCAATGCTATGC, the figure is 1.48; as for GCAGGCATACCAGGCAGAGGGTTAACCCCT, 2.86. For CATTCCTTTCTAATCTCAAAGTGTCAGTCC the value was 2.04; for ATAAAGTCCAAACCCCTATGTTTAATGTAT, 2.12; for GAAAACAAACATTAGCTGCAGATTCCACCT, -1.13.

On to GAGCAGTGAATGTTGAAGTCCCACGGCAAC, for which the binding signal (log2 normalized intensity) is -1.1. For AAGAAGCGTCAGTTGCCTCGCCAGAGATAA the value was -1.12; for CAGTGGTAATGGAGCTGAAACTATAAACTT, -0.653; for ATTTCTTTTAATGTGTGCTTTCAGGTGTGA, 2.11. As for TTCAAGGAGCTCGGCGCCAGGAAGCAATGG, the figure is -0.203; as for ATAACCATGCTCAACATCAAAGGCCTTCCT, -1.21; as for GCTCTTCAATGCATTCCTGAAGCCTTCCTT, 0.321.

For GAACAAGGCTGAAGGGAAGCTCTGGGAGTG, the binding signal (log2 normalized intensity) was -1.24.

As to TGGGCAGAGACTATGTGGTTTTGTAAATAT, the binding signal (log2 normalized intensity) was determined as 1.6. As for TCTATGTCCACAGAAAGGCAAGAAGTATGA, the figure is 0.253; as for CTAGCACCTGTGGATGCAGGTCTACCTTAT, 0.31; as for AGCCTAGACTCAACACCCAGGCTTATCTCA, -1.17. As for GGGGCAGGCAGGGGATGAGATCTGAAGATA, the figure is -0.99; as for CCAGTTCCAAAGTCCAGGTGCTTTCTTCTT, 4.64. As for AAGAAGTATGAAAGATGACTACCAGGTTCT, the binding signal (log2 normalized intensity) is -0.936. AGGTTCTCATACCTTCTGCTTCAGTTTTGC: the binding signal (log2 normalized intensity) is 1.03. As for GCTCCGCTTACTCGGCCTGGACCCCTCCGG, the figure is 0.866.

Take ACACTGCAGGCTCTGTCCCCGCCCAGCAGA: the binding signal (log2 normalized intensity) was determined as 2.77. As for GGCAGAAGGTTCCAGGGAACTGTCCACCAA, the figure is -1.12; as for CTGCCATAAGCGAAGATAACCTACTTAAAA, -1.2. For TGTAAGAAGTGTAAAAAGATAAGATGTACC the value was 0.662; for TAAATTCCAGAAAGCAACAAAAACCAAATC, -0.18; for CAACCCTTGTCACTTTCCCTTTGTCTCCAG, 1.23. With TTGGGCTGCACCCTGACTAAATTCTTGTCA, the binding signal (log2 normalized intensity) was -0.979.

With GCAGGGCTGCCTCGCTTCCGGGTGGGAGCT, the binding signal (log2 normalized intensity) is -1.12. For AAGGCAGGAGATTCCACATTCCCTTCTTAG the value was -1.11; for AGTTAGGCAGGATGGGGTCATGATAAGAGC, 0.491; for GCAGAATGAGCAAGGTGGGTTCAGAGACCC, -0.724.

Consider TCTTCCTAGGCAATCCCATGACCTTTGTAC, for which the binding signal (log2 normalized intensity) amounted to 8.78. Regarding TCAACCTCTCTGGGGGATGGGTCCACACAG, the binding signal (log2 normalized intensity) came to 1.55. As for GGGAGATAGTCTGAGAGTCACTGCCTTATC, the figure is -0.676; as for TAAAATGCCCTCACAGGTTCCAGCATGGAC, 1.12.

As for CCAACAGAGTCATCACAATAGGGAAACAGC, the binding signal (log2 normalized intensity) was -1.08. As for CCTCCTAATCACTGCCCTTTGGTGCCTCTT, the figure is 2.28; as for TCCCTAAGTACACACTGTACCCGTCCACCT, 1.47; as for CACAAGGATCCCATTCATGTGGGTCAACAG, 0.413.

For the sequence CCGAGGAACCCAGACTGCATTTTCATCTTG, the binding signal (log2 normalized intensity) is -1.01.

Turning to GCATCTGTTGCTCAAGGAGGCCCAAAGGAA, the binding signal (log2 normalized intensity) turned out to be 0.136. For AAAAGATTAAGTTATCCATGGAGTGTGAAA the value was 0.956; for CAAGATCCTAGTCTTTAGAGTAACCATTCT, -0.157. For ATCAATAAAAGGTCCAGAGTTCACTGCAGG, the binding signal (log2 normalized intensity) stood at 3.16. Take TGAAGGGGGCGGGGGCGAAAGGGAGGGGGC: the binding signal (log2 normalized intensity) was -1.22.

For TTCAAAGCCAGGACTTTCAGGAATGCACCC, the binding signal (log2 normalized intensity) was 0.687. As for AGATCAGTAGCTAGGAGACAACTTAGAATT, the figure is -1.16.

Take TTAATGGAAATGCCTAGGATACCTAGTAGG: the binding signal (log2 normalized intensity) is -0.491.

Regarding GTGTTTACTGGGGGCCACCATATGTATGTG, the binding signal (log2 normalized intensity) was -0.127. As for GAGCCCTCTGATCTGACCCCTTCTTGACCT, the figure is 4.55.

(Values after PMC10726135.)
